# Assay results published in the supplement of paper PMC4604168 (melanoma cell lines).
# Some of the results follow. Single values are uncertain, as repeats are few or missing.
# System: WM451Lu
# Assay: cell count relative to DMSO control; melanoma cells; higher = more viable cells
# Conditions: library dose: low library concentration; 72 h
# 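Further: cell number obtained by counting DAPI-stained nuclei in high-throughput microscope images with image analysis software, screen run in 1,536-well plates.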
row,Compound,cell count
1,"CC(=O)O[C@@]12CO[C@@H]1C[C@H](O)[C@@]1(C)C(=O)[C@H](O)C3=C(C)[C@@H](OC(=O)[C@H](O)[C@@H](NC(=O)OC(C)(C)C)c4ccccc4)C[C@@](O)([C@@H](OC(=O)c4ccccc4)[C@H]21)C3(C)C [Docetaxel] + Nc1cccc2c1CN(C1CCC(=O)NC1=O)C2=O [lenalidomide] (first compound 0.0001 µM, partner dose 1 µM)",62.5%
2,"CC(=O)O[C@@]12CO[C@@H]1C[C@H](O)[C@@]1(C)C(=O)[C@H](O)C3=C(C)[C@@H](OC(=O)[C@H](O)[C@@H](NC(=O)OC(C)(C)C)c4ccccc4)C[C@@](O)([C@@H](OC(=O)c4ccccc4)[C@H]21)C3(C)C [Docetaxel] + O=C(O)c1ccc(-c2c[nH]c3ncc(-c4ccccc4)cc23)cc1C1CCCC1 [GSK650394] (first compound 0.0001 µM, partner dose 0.16 µM)",58%
3,"Nc1nc(F)nc2c1ncn2[C@@H]1O[C@H](CO)[C@@H](O)[C@@H]1O [fludarabine] + CC1(C)NC(=O)N(c2ccc([N+](=O)[O-])c(C(F)(F)F)c2)C1=O [nilutamide] (first compound 0.2 µM, partner dose 1 µM)",46.5%
4,"Nc1nc(F)nc2c1ncn2[C@@H]1O[C@H](CO)[C@@H](O)[C@@H]1O [fludarabine] + c1cc(-c2cnn3cc(-c4ccc(OCCN5CCCCC5)cc4)cnc23)ccn1 [Dorsomorphin] (first compound 0.2 µM, partner dose 0.4 µM)",27%
5,"Nc1nc(F)nc2c1ncn2[C@@H]1O[C@H](CO)[C@@H](O)[C@@H]1O [fludarabine] + CCN(CC)CCCCNc1ncc2cc(-c3cc(OC)cc(OC)c3)c(NC(=O)NC(C)(C)C)nc2n1 [PD173074] (first compound 0.2 µM, partner dose 0.1 µM)",40.2%
6,"Nc1nc(F)nc2c1ncn2[C@@H]1O[C@H](CO)[C@@H](O)[C@@H]1O [fludarabine] + C=CCNC1=C2C[C@@H](C)C[C@H](OC)[C@H](O)[C@@H](C)/C=C(\C)[C@H](OC(N)=O)[C@@H](OC)/C=C\C=C(/C)C(=O)NC(=CC1=O)C2=O [Tanespimycin] (first compound 0.2 µM, partner dose 0.002 µM)",62.7%
7,"Nc1nc(F)nc2c1ncn2[C@@H]1O[C@H](CO)[C@@H](O)[C@@H]1O [fludarabine] + C=CCn1c(=O)c2cnc(Nc3ccc(N4CCN(C)CC4)cc3)nc2n1-c1cccc(C(C)(C)O)n1 [MK1775] (first compound 0.2 µM, partner dose 0.02 µM)",42.8%
8,"CC(=O)c1c(C)c2cnc(Nc3ccc(N4CCNCC4)cn3)nc2n(C2CCCC2)c1=O [palbociclib] + CN(C)S(=O)(=O)c1ccc2c(c1)/C(=C/c1cc3c([nH]1)CCCC3)C(=O)N2 [SU6656] (first compound 0.04 µM, partner dose 0.4 µM)",70.5%
9,"CC(=O)c1c(C)c2cnc(Nc3ccc(N4CCNCC4)cn3)nc2n(C2CCCC2)c1=O [palbociclib] + Cn1cncc1[C@@](N)(c1ccc(Cl)cc1)c1ccc2c(c1)c(-c1cccc(Cl)c1)cc(=O)n2C [tipifarnib] (first compound 0.04 µM, partner dose 0.01 µM)",41.3%
10,"Nc1ccn([C@@H]2O[C@H](CO)[C@@H](O)C2(F)F)c(=O)n1 [gemcitabine] + Nc1cccc2c1CN(C1CCC(=O)NC1=O)C2=O [lenalidomide] (first compound 0.0004 µM, partner dose 1 µM)",117%
11,"Nc1nc(F)nc2c1ncn2[C@@H]1O[C@H](CO)[C@@H](O)[C@@H]1O [fludarabine] + Clc1ccc(Nc2nnc(Cc3ccncc3)c3ccccc23)cc1 [vatalanib] (first compound 0.2 µM, partner dose 2 µM)",45%
12,"Nc1nc(F)nc2c1ncn2[C@@H]1O[C@H](CO)[C@@H](O)[C@@H]1O [fludarabine] + C#Cc1cccc(Nc2ncnc3cc(OCCOC)c(OCCOC)cc23)c1 [erlotinib] (first compound 0.2 µM, partner dose 0.8 µM)",41.2%
13,"Nc1nc(F)nc2c1ncn2[C@@H]1O[C@H](CO)[C@@H](O)[C@@H]1O [fludarabine] + O=C(O)C(=O)Nc1sc2c(c1C(=O)O)CCNC2 [TCS401] (first compound 0.2 µM, partner dose 1.66667 µM)",44.4%
14,"CC(=O)O[C@@]12CO[C@@H]1C[C@H](O)[C@@]1(C)C(=O)[C@H](O)C3=C(C)[C@@H](OC(=O)[C@H](O)[C@@H](NC(=O)OC(C)(C)C)c4ccccc4)C[C@@](O)([C@@H](OC(=O)c4ccccc4)[C@H]21)C3(C)C [Docetaxel] + O=c1cc(-c2cccc3c2Sc2ccccc2S3)oc(N2CCOCC2)c1 [KU55933] (first compound 0.0001 µM, partner dose 1 µM)",56.3%
15,"Nc1ccn([C@@H]2O[C@H](CO)[C@@H](O)C2(F)F)c(=O)n1 [gemcitabine] + Cc1cc([N+](=O)[O-])ccc1NS(=O)(=O)c1cc(Cl)ccc1Cl [FH535] (first compound 0.0004 µM, partner dose 1 µM)",115%
16,"CC(=O)c1c(C)c2cnc(Nc3ccc(N4CCNCC4)cn3)nc2n(C2CCCC2)c1=O [palbociclib] + O=C(O)c1ccc(-c2c[nH]c3ncc(-c4ccccc4)cc23)cc1C1CCCC1 [GSK650394] (first compound 0.04 µM, partner dose 0.16 µM)",66.6%
17,"CO[C@H]1C[C@@H]2CC[C@@H](C)[C@@](O)(O2)C(=O)C(=O)N2CCCC[C@H]2C(=O)O[C@H]([C@H](C)C[C@@H]2CC[C@@H](OCCO)[C@H](OC)C2)CC(=O)[C@H](C)/C=C(\C)[C@@H](O)[C@@H](OC)C(=O)[C@H](C)C[C@H](C)/C=C/C=C/C=C/1C [everolimus] + CCCCCCCCCCCC1=C(O)C(=O)C=C(O)C1=O [Embelin] (first compound 0.02 µM, partner dose 1.2 µM)",79.6%
18,"Nc1ncn([C@H]2C[C@H](O)[C@@H](CO)O2)c(=O)n1 [decitabine] + CC(C)(C)c1cnc(CSc2cnc(NC(=O)C3CCNCC3)s2)o1 [SNS-032] (first compound 0.1 µM, partner dose 0.01 µM)",99.9%
19,"CO[C@H]1C[C@@H]2CC[C@@H](C)[C@@](O)(O2)C(=O)C(=O)N2CCCC[C@H]2C(=O)O[C@H]([C@H](C)C[C@@H]2CC[C@@H](OCCO)[C@H](OC)C2)CC(=O)[C@H](C)/C=C(\C)[C@@H](O)[C@@H](OC)C(=O)[C@H](C)C[C@H](C)/C=C/C=C/C=C/1C [everolimus] + Cn1nnc2c(C(N)=O)ncn2c1=O [temozolomide] (first compound 0.02 µM, partner dose 2 µM)",90.3%
20,"CO[C@H]1C[C@@H]2CC[C@@H](C)[C@@](O)(O2)C(=O)C(=O)N2CCCC[C@H]2C(=O)O[C@H]([C@H](C)C[C@@H]2CC[C@@H](OCCO)[C@H](OC)C2)CC(=O)[C@H](C)/C=C(\C)[C@@H](O)[C@@H](OC)C(=O)[C@H](C)C[C@H](C)/C=C/C=C/C=C/1C [everolimus] + Cn1cncc1[C@@](N)(c1ccc(Cl)cc1)c1ccc2c(c1)c(-c1cccc(Cl)c1)cc(=O)n2C [tipifarnib] (first compound 0.02 µM, partner dose 0.01 µM)",75.9%
21,"Nc1nc(F)nc2c1ncn2[C@@H]1O[C@H](CO)[C@@H](O)[C@@H]1O [fludarabine] + COCC[n+]1c2c(n(Cc3cnccn3)c1C)C(=O)c1ccccc1C2=O [YM155] (first compound 0.2 µM, partner dose 0.0004 µM)",39.4%
22,"CO[C@H]1C[C@@H]2CC[C@@H](C)[C@@](O)(O2)C(=O)C(=O)N2CCCC[C@H]2C(=O)O[C@H]([C@H](C)C[C@@H]2CC[C@@H](OCCO)[C@H](OC)C2)CC(=O)[C@H](C)/C=C(\C)[C@@H](O)[C@@H](OC)C(=O)[C@H](C)C[C@H](C)/C=C/C=C/C=C/1C [everolimus] + c1cc(-c2cnn3cc(-c4ccc(OCCN5CCCCC5)cc4)cnc23)ccn1 [Dorsomorphin] (first compound 0.02 µM, partner dose 0.4 µM)",77.4%
23,"CC(=O)c1c(C)c2cnc(Nc3ccc(N4CCNCC4)cn3)nc2n(C2CCCC2)c1=O [palbociclib] + Cn1c(Nc2ccc(C(F)(F)F)cc2)nc2cc(Oc3ccnc(-c4ncc(C(F)(F)F)[nH]4)c3)ccc21 [CHIR265] (first compound 0.04 µM, partner dose 0.08 µM)",79%
24,"CC(=O)O[C@@]12CO[C@@H]1C[C@H](O)[C@@]1(C)C(=O)[C@H](O)C3=C(C)[C@@H](OC(=O)[C@H](O)[C@@H](NC(=O)OC(C)(C)C)c4ccccc4)C[C@@](O)([C@@H](OC(=O)c4ccccc4)[C@H]21)C3(C)C [Docetaxel] + NCC(=O)Nc1ccc(-n2nc(C(F)(F)F)cc2-c2ccc3c(ccc4ccccc43)c2)cc1 [OSU03012] (first compound 0.0001 µM, partner dose 1 µM)",53.3%
25,"CC(=O)O[C@@]12CO[C@@H]1C[C@H](O)[C@@]1(C)C(=O)[C@H](O)C3=C(C)[C@@H](OC(=O)[C@H](O)[C@@H](NC(=O)OC(C)(C)C)c4ccccc4)C[C@@](O)([C@@H](OC(=O)c4ccccc4)[C@H]21)C3(C)C [Docetaxel] + CC(=O)c1c(C)c2cnc(Nc3ccc(N4CCNCC4)cn3)nc2n(C2CCCC2)c1=O [palbociclib] (first compound 0.0001 µM, partner dose 0.04 µM)",55.7%
